The record followed here is paper PMC4336329 (PLoS ONE, 2015).

The whole screen tested about 310,000 compounds, of which about 2,200 (0.71%) showed an effect of 50% or more. Effects have a minus sign here. The list shows a part of the results.

For this assay, the target named is human ether-à-go-go-related gene (hERG) potassium channel (human, UniProt Q12809). Description: primary screen, population patch clamp on CHO cells stably expressing hERG.
Sequence of human ether-à-go-go-related gene (hERG) potassium channel (Q12809 whole entry, looked up): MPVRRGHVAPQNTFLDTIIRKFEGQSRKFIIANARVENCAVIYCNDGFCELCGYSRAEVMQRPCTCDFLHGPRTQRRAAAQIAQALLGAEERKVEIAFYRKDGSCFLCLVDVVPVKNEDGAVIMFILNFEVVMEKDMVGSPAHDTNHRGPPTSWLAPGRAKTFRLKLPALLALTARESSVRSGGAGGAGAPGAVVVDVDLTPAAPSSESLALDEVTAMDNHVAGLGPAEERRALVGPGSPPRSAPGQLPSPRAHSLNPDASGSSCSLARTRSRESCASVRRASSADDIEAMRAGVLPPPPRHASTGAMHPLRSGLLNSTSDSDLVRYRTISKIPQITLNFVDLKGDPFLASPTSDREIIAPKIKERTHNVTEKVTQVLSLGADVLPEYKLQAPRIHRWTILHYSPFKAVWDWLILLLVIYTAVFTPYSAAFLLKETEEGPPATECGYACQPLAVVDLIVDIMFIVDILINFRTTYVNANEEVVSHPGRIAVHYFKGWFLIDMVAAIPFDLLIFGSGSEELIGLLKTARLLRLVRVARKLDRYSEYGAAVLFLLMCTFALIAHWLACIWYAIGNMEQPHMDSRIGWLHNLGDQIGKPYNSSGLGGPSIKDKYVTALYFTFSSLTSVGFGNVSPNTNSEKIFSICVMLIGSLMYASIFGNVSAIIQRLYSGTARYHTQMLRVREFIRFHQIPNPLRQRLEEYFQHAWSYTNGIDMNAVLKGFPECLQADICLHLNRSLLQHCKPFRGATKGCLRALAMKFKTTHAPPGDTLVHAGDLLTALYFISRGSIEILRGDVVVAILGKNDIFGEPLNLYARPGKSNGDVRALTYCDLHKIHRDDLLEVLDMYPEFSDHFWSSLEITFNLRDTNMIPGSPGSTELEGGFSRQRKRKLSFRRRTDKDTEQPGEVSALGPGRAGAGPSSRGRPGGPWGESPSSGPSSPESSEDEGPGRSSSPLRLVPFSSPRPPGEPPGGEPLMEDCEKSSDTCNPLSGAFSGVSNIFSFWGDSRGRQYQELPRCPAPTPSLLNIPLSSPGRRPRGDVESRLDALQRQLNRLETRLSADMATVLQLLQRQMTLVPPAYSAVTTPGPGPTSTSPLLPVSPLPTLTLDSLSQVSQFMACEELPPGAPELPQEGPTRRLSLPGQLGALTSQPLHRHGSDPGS
As for `Cc1ccc(/C=C2\SC(=S)N(CCCC(=O)NNC(=O)c3ccccc3O)C2=O)cc1`, the “hERG current change (%, negative = inhibition) at 1uM” value was found to be 4.66%.
As for `O=C(C1CCCCC1)N1CC(=O)N2CCc3ccccc3C2C1` (stereo not drawn), the “hERG current change (%, negative = inhibition) at 1uM” value was 16.3%.
Turning to `COc1cccc(C(=O)N2CCN(Cc3cccc(F)c3)CC2)c1.O=C(O)C(=O)O`, the “hERG current change (%, negative = inhibition) at 1uM” value is 12.4%.
Then `O=C(NCCc1ccccc1)C(=O)NC1CCCCC1`, with 10%.
Then `COC(=O)/C(=C\Nc1ccccc1N)c1ncc(C(F)(F)F)cc1Cl`, with 6.66%; and `CC(=O)Nc1ccc(C(=O)CSc2nnc(Cn3nnc4ccccc43)n2C)cc1`, with 9.17%.
The result for `Cc1c(Cl)cccc1NC(=S)Nc1ccc2[nH]c(=O)[nH]c2c1` reads 5.15%.
As for `Cc1cc(C)cc(OCC(=O)NNC(=O)C2CCCO2)c1` (stereo not drawn), the “hERG current change (%, negative = inhibition) at 1uM” value is listed as 9.09%.
The result for `CC1=NN=C(c2ccccc2)C(c2c[nH]c3ccccc23)N1O` (stereo not drawn) reads 22%; that for `Cc1ccc2c(COC(=O)c3ccccc3Cl)cc(=O)oc2c1`, 19.7%; that for `O=C(CNS(=O)(=O)c1ccc([N+](=O)[O-])cc1)N/N=C\c1ccc(O)cc1`, 14.2%.
The result for `CCN(CC(=O)NCc1cccs1)C(=O)c1cc(S(=O)(=O)NCc2ccccc2)ccc1C` reads -7.97%; that for `O=C(CCC1CCCCC1)Nc1nccs1`, -2.61%; that for `Cc1cccc(NC(=O)C(C)N2CC=C(c3ccccc3)CC2)c1` (stereo not drawn), 10.8%.
The result for `COc1cc(C#CC#CCN2CCCCC2)ccc1O.Cl` reads -0.226%; that for `CSc1ccc(C2C3(C#N)C(N)=NC4(OCCO4)C23C#N)cc1` (stereo not drawn), 3.95%; that for `COc1ccc(-c2csc(NC(=O)CSc3nnc(Nc4ccccc4C)s3)n2)cc1`, 2.61%.
For the compound `Cc1ccsc1C(=O)c1sccc1C`, the “hERG current change (%, negative = inhibition) at 1uM” value is recorded as 10.6%.
The result for `Cc1noc(C)c1COC(=O)COc1ccc(-c2ccccc2)cc1` reads 8.49%.
For the compound `CCC(C)Sc1ccc([C@H]2N[C@@](Cc3ccccc3)(C(=O)OC)[C@H]3C(=O)N(C)C(=O)[C@@H]23)cc1.O=C(O)C(F)(F)F` (stereo partly drawn), the “hERG current change (%, negative = inhibition) at 1uM” value is 0.708%.
Then `O=C1S/C(=C\c2ccccc2)C(=O)N1CC(O)Cn1c2ccccc2c2ccccc21` (stereo not drawn), with 14.6%; and `COCOc1ccc(-c2oc3c(C/C=C(\C)CCC=C(C)C)ccc(O)c3c(=O)c2OCOC)c(OCOC)c1`, with -0.0528%.
With `CCn1c(SCC(=O)N2CCCCCC2)nc2c([nH]c3ccccc32)c1=O`, the “hERG current change (%, negative = inhibition) at 1uM” value is reported as -3.2%.
Then `CC1(C)CC(CCC(=O)Nc2ccc(S(N)(=O)=O)cc2)C(=O)O1` (stereo not drawn), with 20.4%; and `O=C(/C(C=Nc1ccc(F)cc1)=C(/O)c1ccco1)C(F)(F)F`, with 3.35%.
The result for `COc1ccc(S(=O)(=O)CC2(O)CCN(C(=O)CC(C)C)CC2)cc1` reads 4.28%; that for `CC(=O)Oc1ccc(N2C(=O)CCC2=O)cc1`, 16.1%.
Then `COc1cccc2c(=O)n(CC(=O)N3CCCCCC3)ccc12`, with 9.83%; and `CC(C)c1nc(SCC(=O)NC2CCCC2)c2c(=O)n(C)c(=O)n(C)c2n1`, with 13.9%; and `COc1cc(C(=O)N(C)C2CCCN(Cc3ccccc3F)C2)cc(OC)c1OC` (stereo not drawn), with 10.2%.
Consider `Cc1cccnc1NC(=O)CCn1c(=O)oc2ccccc21`, for which the “hERG current change (%, negative = inhibition) at 1uM” value turned out to be 15.4%.
In the case of `COc1ccc(S(=O)(=O)N2CCCCC2)cc1C(C)C`, the “hERG current change (%, negative = inhibition) at 1uM” value came to 7.64%.
Then `Cc1cccc(C)c1NC(=O)CNC(=O)C1COc2ccccc2O1` (stereo not drawn), with 19.4%; and `Cc1ccccc1N1C(=O)C(Oc2ccc(Cl)cc2)C1CNCC1CCCO1.Cl` (stereo not drawn), with -12.5%; and `Cc1cccc(NC(=O)c2cc(-c3cc(C)cc(C)c3O)n[nH]2)c1`, with 21.4%.
The result for `COc1ccccc1OCC(=O)NCCCn1ccnc1` reads 10.4%; that for `O=S(=O)(O/N=C1\CCCc2ccccc21)c1ccc(Cl)cc1`, 11.7%; that for `Cc1cc(N/N=C/c2ccc(N(C)C)cc2)nc(NCc2ccccc2)n1`, 8.2%.
Then `Cc1cc(N2CCN(C)CC2)nc2ccc(NC(=S)N3CCN(c4ccccn4)CC3)cc12`, with 9.76%; and `CCN(CC)C(=O)CSc1nc2ncc(Cl)cc2[nH]1`, with 9.4%.
Regarding `Cc1ccc(C)c(C(=O)N(Cc2nc(-c3ccc(Cl)cc3)no2)C(C)C)c1`, the “hERG current change (%, negative = inhibition) at 1uM” value is given as 7.31%.
Then `O=C(COC(=O)CCN1C(=O)C2CC=CCC2C1=O)NCCc1ccc(F)cc1` (stereo not drawn), with -2.01%.
